This sample is rich in variants without activity.
B1: TPR 5TU (parent)
chain: GGAUCUUCUCGAUCUAACAAAAAAGACAAAUCUGCCACAAAGCUUGAGAGCAUCUUCGGAUGCAGAGGCGGCAGCCUUCGGUGGCGCGAUAGCGCCAACGUUCUCAACUAUGACACGCAAAACGCGUGCUCCGUUGAAUGGAGUUUAUCAUG

Variants of: B1
Experiment: polymerase ribozyme fitness, log enrichment relative to wild type (log ratio); higher = more active; in vitro selection for triplet polymerase activity
How it was run: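 PCR was used to build mutant libraries for each subunit of a heterodimeric triplet polymerase ribozyme, which were then transcribed. A single in vitro selection round, in triplicate, used a frozen incubation at −7 °C and recovered extended constructs by gel excision, streptavidin beads and RT-PCR. Fitness is the logarithm of genotype enrichment relative to wild-type enrichment, averaged over replicates with inverse-variance weights. The logarithm is base 2, and after Illumina sequencing only genotypes with ≥10 input reads and ≥1 read per output were kept.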

Point of comparison: G42A U55A, “polymerase ribozyme fitness (log ratio)” value -3.81. Against it:
- G42C G92C C132A U139A — lower, ≤ -4.2
- G42A C93G G100U G140U — lower, ≤ -4.2
- G42A G59C G80U U90G — lower, ≤ -4.2
- G42A G62C C116G C125U A142U A150C — lower, ≤ -4.2
- C43U G50C — lower, ≤ -4.2
- C43U G83A G100U — lower, ≤ -4.2
- C43U U56A G68C U104A A115C G124A U144G — lower, ≤ -4.2
- U44A G48A A49C C57G G83A U145A — lower, ≤ -4.2
- C43A C57G A60C U61A C69U C93U — lower, ≤ -4.2
- C43U U55A C76A C93G G140C — lower, ≤ -4.2
- U44G A47C A66G G67A C87A C96G U145A — lower, ≤ -4.2
- G42A A49C A97U A106G C123G — lower, ≤ -4.2
- U44A A89U G92C C95U — lower, ≤ -4.2
- U44A C93A C108U C125G A142G U145G U146A — lower, ≤ -4.2
- U44A A91C G94U C149G — lower, ≤ -4.2
- C43A U55C G58C C93G C95U U130C C132A — lower, ≤ -4.2
- G42A A142C U148G — lower, ≤ -4.2
- U44G G84C C85G A142C — lower, ≤ -4.2
- G42A C43A C54U G84A A150G — lower, ≤ -4.2
- C43A U55A C57U C87G — lower, ≤ -4.2
- C43A A52G C72U C76A C85A — lower, ≤ -4.2
- C43A A66G U77A A97G U146A — lower, ≤ -4.2
- U44A U53A C93G C105U C116G U135C — lower, ≤ -4.2
- G42U U45G U53C G88U A137C — lower, ≤ -4.2
- U44A C76U G86U A121U — within 0.2 log units, -3.86
- C43G U44G C96U G126A U148G — lower, ≤ -4.2
- G42U C69U C87A A122U — lower, ≤ -4.2
- C43U C93U — lower, ≤ -4.2
- U44G A91U A137U — lower, ≤ -4.2
- U44C G124C — lower, ≤ -4.2
- G42U U146C — lower, ≤ -4.2
- C43U G62A G86U G126A G133A U151A — lower, ≤ -4.2
- U44G U45G C72G — lower, ≤ -4.2
- C43U G58A U82A C96A U104G A110C G133A U139A G152U — lower, ≤ -4.2
- U45A A49C G84A — lower, ≤ -4.2
- C43A G92A A98U A137C — lower, ≤ -4.2
- C43U C54U G71U C79A A120C — lower, ≤ -4.2
- G42A U78A G80C G88C A91G G92A A106U C118U G126A — lower, ≤ -4.2
- C43A G81A C96A U145A — lower, ≤ -4.2
- G42A C57A C75A C93A U145C — lower, ≤ -4.2
- U44G G59U G94C G143U — lower, ≤ -4.2
- U45A G70A C93U — lower, ≤ -4.2
- G42U U56A A120U A142C — lower, ≤ -4.2
- U45A A49C G80C U102G — lower, ≤ -4.2
- G42A G59A G68A A89G C103G U144G — lower, ≤ -4.2
- G42A A49C C54U C95U C118U — lower, ≤ -4.2
- G42A A89U C99G C105A — lower, ≤ -4.2
- U44G U56A C79A G124U — lower, ≤ -4.2
- C43U C79A C108G A138G G140A — lower, ≤ -4.2
- C43G G58C U78A G133U — lower, ≤ -4.2
- U45A A73G G83C C85U — lower, ≤ -4.2
- U45A G48A C57U A107G — lower, ≤ -4.2
- C43A G58C C76A U102C G141A — lower, ≤ -4.2
- G42A U45A C69A A115G A119G A120G — lower, ≤ -4.2
- G42C G48C G59U C95A G136A A138G — lower, ≤ -4.2
- C43A C54U G86A A98U — lower, ≤ -4.2
- G42A G62U G65C U77C G84A C118A C125U — lower, ≤ -4.2
- G42A G50C G92C C132U U135C U145G — lower, ≤ -4.2
- G42C G62A C96A U144A U151G — lower, ≤ -4.2
- U44A A97U — lower, ≤ -4.2
- U44A A49U C54U G59U G92A A106U — lower, ≤ -4.2
- C43A U44G A64C C118G C131G A137G G152U — lower, ≤ -4.2
- U44A G50A U55G G83C C85A U145A U146G — lower, ≤ -4.2
- G42A G59A U102G — lower, ≤ -4.2
- U44A C51U G67U — lower, ≤ -4.2
- G42U A60U G81U U82G C96U C99G G100C U134G — lower, ≤ -4.2
- U45A C57A C96U G124A — higher, -3.11
- C43A U61A G65C C87G G124A G128C A147U — lower, ≤ -4.2
- U45A A52U U56A C76U — lower, ≤ -4.2
- C43U G83U G92A — lower, ≤ -4.2
- G42C A60U G92U A119U C125A — lower, ≤ -4.2
- C43G U45A U55A C63U G84C C85G C93G G124C G133C — lower, ≤ -4.2
- G42C C72U — lower, ≤ -4.2
- G42A C72U C79U G88C — lower, ≤ -4.2
- C43G C57A G59C C72A C79A A138G U145A — lower, ≤ -4.2
- U45A A47U G80U U90A — lower, ≤ -4.2
- G42C A60G C75G C105U A122G — lower, -4.18
- U44A C96G C99G G117U U146C — lower, ≤ -4.2
- G42C U45A A52C U77G C85A C116G — lower, ≤ -4.2
- C43A U77C C87A G88U A106U U151A — lower, ≤ -4.2
- C43U A66G C105A — lower, ≤ -4.2
- C43U G59C C95G A97U C116G — lower, ≤ -4.2
- C43G U44A U45G G58C A66U C93U A106G C125U U134C — lower, ≤ -4.2
- U44A C72G C79A A150C — lower, ≤ -4.2
- G42C A49G C54G G83C C85U C96A — lower, ≤ -4.2
- U44A C85U U144A — lower, ≤ -4.2
- G42C U55G C75G U78G — lower, ≤ -4.2
- C43A A66U A106U C123A — lower, ≤ -4.2
- G42C U53A U55G C76U C93A — lower, ≤ -4.2
- C43A G48U A60G G83C C87U G126U A138C — lower, ≤ -4.2
- C43G G50C G62U C75U G84A C93U U151C — lower, ≤ -4.2
- U44A G48C G68A — lower, ≤ -4.2
- U44A U56A C72U G94A U101C A121G — lower, ≤ -4.2
- U45A C72A G86U C99U — lower, ≤ -4.2
- U45A C85U C118A — lower, ≤ -4.2
- U44G U53A U77C U78A U90G G94C U127C U139A G141A — lower, ≤ -4.2
- G42A A73G G94C A115G — lower, ≤ -4.2
- C43U A47C C79G — lower, ≤ -4.2
- U44A C87A A89U A107G U134A A142U — lower, ≤ -4.2
- U44A A52U G65A C85U A97C G117U A142U — lower, ≤ -4.2
- G42C C87G A113C G133A — lower, ≤ -4.2
- G42U U53G G58C C87U A121G U144A — lower, ≤ -4.2
- C43U U61A G86U A142G A147U — lower, ≤ -4.2
- U44A A52G G71C C76G C118G U130G U134A — lower, ≤ -4.2
- U44G C76G G124U A147C — lower, ≤ -4.2
- U44G U56A A64G A89U A97G A98G U148C — lower, ≤ -4.2
- U44A G88U U111G — lower, ≤ -4.2
- G42A U78G C116A C125G — lower, ≤ -4.2
- G42U U45A C95U C149A — lower, ≤ -4.2
- U44A U45A A60U G62C C114U — lower, ≤ -4.2
- C43G G81U A91U G124C U135G — lower, ≤ -4.2
- G42C U53A C79A G84U C108A C131G — lower, ≤ -4.2
- G42C G46C C85A A115G G133A A138G A150U — lower, ≤ -4.2
- U44A A64U A66C C76A C95U A97C A137U A150G — lower, ≤ -4.2
- G42A C57G A73U C75A G86U A89C — lower, ≤ -4.2
- C43A G62A G124C — lower, ≤ -4.2
- C43G G74A A91U G92U A98C U109G C132U — lower, ≤ -4.2
- U44A A73G G86U A113U C125U — lower, ≤ -4.2
- C43A C57U C75U U77C C87A C93A C108A C149G — lower, ≤ -4.2
- G42A G84A — within 0.2 log units, -3.95
- G42C U53A G92A U134A — lower, ≤ -4.2
- U44A A89G G92U C149G — lower, ≤ -4.2
- G42C A52G C54G C87G A138G — lower, ≤ -4.2
- G42A A49C C69G A137U — lower, ≤ -4.2
- C43U U55A C93U A106G U111A A138U — lower, ≤ -4.2
- G42A G48A A73G G92A U109C G140C U148G C149G — lower, ≤ -4.2
- C43U C63U G70C U77A G84A — lower, ≤ -4.2
- U44G G88C C108G U144C C149U — lower, ≤ -4.2
- C43U A73G — lower, ≤ -4.2
- C43A C57G U78G C96A A113G — lower, ≤ -4.2
- G42A U56A A60U C76A C96A U102G U127A G141U A150G — lower, ≤ -4.2
- C43U C95U — lower, ≤ -4.2
- G42C C63A C85A C95U A121G U144C — lower, ≤ -4.2
- G42A G50A C57A G94A — lower, ≤ -4.2
- C43A C118G C123G — lower, ≤ -4.2
- C43U U55A G88C — lower, ≤ -4.2
- C43G G58C U61C U111G — lower, ≤ -4.2
- G42C C96G — lower, ≤ -4.2
- G42U G80C C87A C116U U148C — lower, ≤ -4.2
- U44G U82G — lower, ≤ -4.2
- C43U A60C G80C C96G G140U G143A — lower, ≤ -4.2
- C43U U53A A64U C72G C85A — lower, ≤ -4.2
- G42C U55A G70C C96U — lower, ≤ -4.2
- C43A U45C G80C U82G G86U C96G G100U — lower, ≤ -4.2
- U44C G140U — lower, ≤ -4.2
- G42C C96U C99U — lower, ≤ -4.2
- U44A U53A G68A G88C — lower, ≤ -4.2
- U44G A49U U53A A73G C87G G88U C96U G133A A138G G143U — lower, ≤ -4.2
- C43A U45A G74C C85G C108U — lower, ≤ -4.2
- C43U U55G C93G C99A C129A G152A — lower, ≤ -4.2
- G42U C54G G86U G124U — lower, ≤ -4.2
- C43U U56A C79U U82G C87G G128C A137G G152U — lower, ≤ -4.2
- G42U G84U G117U C118G A142G — lower, ≤ -4.2
- G42A C63G — lower, ≤ -4.2
- C43U G50U C87U C116G U144G — lower, ≤ -4.2
- C43U A142U U148A — lower, ≤ -4.2
- G42C G59A C96U A122U U146C — lower, ≤ -4.2
- U44A U53A C85U U109G — lower, ≤ -4.2
- U44A G86A C93U C103G C108U G128A — lower, ≤ -4.2
- C43U C51G A66C U78A A98G G141U — lower, ≤ -4.2
- U44G G59A G68A G94C C118G C131A C149U — lower, ≤ -4.2
- C43G G68C G80C C85G U127G — lower, ≤ -4.2
- U45A C54U U61A C85U — lower, ≤ -4.2
- U45A A49C G58A — lower, ≤ -4.2
- C43U A66U C93U C105U G141A — lower, ≤ -4.2
- C43U A66U C93U C105U G141C — lower, ≤ -4.2
